Data as given in PubChem BioAssay AID463173 (ICCB-Longwood Screening Facility, Harvard Medical School, 2010).
Hit rate of the full screen: of about 52,000 compounds, about 1,700 (3.3%) were called active. Cut-off read from the data, not from the text of the source: active = survival mostly below about 52% (no sharp cut-off); inactive = mostly above about 56%. The list shows a part of the results.

System: Wild type
Test: S. aureus survival, RN4220 and DeltatarO strains – OD600, teichoic acid synthesis inhibitors, primary screen (AID 463173)
Details: S. aureus RN4220 wild type/DeltatarO growth, OD600, 18 h, active compounds read low, screened at 18.75 µg/mL (by protocol)

SMILES | survival
COc1cc(OC)cc(-c2nc3nc(C)c(CCC(=O)Nc4cc(C)cc(C)c4)c(C)n3n2)c1 | inactive: 93%
Cc1cc(=O)[nH]c2nnc(SCc3ccc(Cl)cc3Cl)n12 | inactive: 124%
O=C(N/N=C/c1ccc[nH]1)c1ccccc1O | inactive: 107%
CC(=O)c1cccc(NC(=O)c2sc(-n3nc(C)c(Cc4ccccc4)c3C)nc2C)c1 | inactive: 72%
CCCS(=O)(=O)N1CC(=O)N(c2cccc(Cl)c2)C(C)(C(=O)NC2CCCCC2)C1 (stereo not given) | inactive: 73%
CCCCN(C)CC(O)Cn1cc(/C=C/C(=O)c2ccc(Br)cc2)c2ccccc21 (stereo not given) | active: 15%
COCCNC(=O)c1ccc2c(c1)N(Cc1cc(C)ccc1C)C(=O)c1ccccc1S2=O (stereo not given) | inactive: 93%
Cc1ccc2nc(COc3cccc(NC(=O)Nc4ccc(C)c(Cl)c4)c3)cc(=O)n2c1 | inactive: 19%
COc1cccc(-c2cc(C(=O)NCCc3ccc(OC)c(OC)c3)no2)c1 | inactive: 156%
O=C(Cn1c(SCc2ccc(F)cc2)nc2cccnc21)Nc1ccccc1F | inactive: 75%
Cc1ccc2c(CNC3CCCCC3)c(C(=O)O)n(Cc3ccc(F)cc3)c2c1 | inactive: 91%
COc1cccc2cc(-c3nc(-c4ccccc4F)no3)c(=O)oc12 | inactive: 106%
Cc1c(C=Nc2ccc(Cl)cc2)c(O)n(C)c(=O)c1C#N | inactive: 110%
N#CC(C#N)=C(N)/C(C#N)=C/c1cccs1 | inactive: 124%
O=C(Nc1ccc(F)c(Cl)c1)c1ccc2c(Cl)c3c(nc2c1)CCCC3 | inactive: 130%
CCOc1ccccc1CNC(=O)c1cc2c(=O)n(Cc3cccnc3)ccc2nc1C | inactive: 88%
CCc1cccc(NC(=O)Cn2c(C(=O)OC)cc3sc(Cl)cc32)c1 | inactive: 80%
O=C(Cn1nnc(-c2cccs2)n1)N1c2ccccc2CCc2ccccc21 | inactive: 103%
Cc1ccc(-n2c(SCc3ccccc3F)nc3[nH]ncc3c2=O)cc1Cl | inactive: 77%
COc1ccc(NC(=O)CN2CCC(c3nc4ccc(Cl)cc4[nH]3)CC2)c(OC)c1 | inactive: 116%
CCN(CC)CCNC(=O)C1CCN(C(=O)c2cnn(-c3ccccc3)c2-n2cccc2)CC1 | inactive: 88%
O=C(CN1C2=NCCN2c2ccccc21)c1ccc(O)cc1 | inactive: 87%
O=C(NCc1ccccc1)C1CCN(S(=O)(=O)Cc2ccccc2)CC1 | inactive: 109%

SMILES | survival
CCOC(=O)N1CCc2c(sc3c2C(=O)NC(c2ccc(N(C)C)cc2)N3)C1 (stereo not given) | inactive: 70%
Cc1ccc2nc(NC(=O)CSc3[nH]c(=O)ncc3C)sc2c1 | inactive: 124%
CC1CCN(C(=O)CN(CCc2ccccc2)S(C)(=O)=O)CC1 | inactive: 114%
Cc1ccc(NC(=O)CSc2nc(=O)cc(N)n2-c2ccccc2)cc1 | inactive: 90%
CC(=O)NCCNC(=O)CCCn1c(=O)[nH]c2ccsc2c1=O | inactive: 57%
CCCCOc1ccc(C2c3c(oc4ccc(C)cc4c3=O)C(=O)N2CCCN(C)C)cc1OCC (stereo not given) | inactive: 73%
Cc1ccc(-n2c(/C=C/c3c(C)n(C)c4ccccc34)nc3ccccc3c2=O)cc1 | inactive: 76%
Cc1ccc(C)c(NS(=O)(=O)c2cc3c(cc2C)n(C)c(=O)c(=O)n3C)c1 | inactive: 75%
CCN(CC)S(=O)(=O)c1cccc(C(=O)Nc2ccccc2C(=O)Nc2ccc(Cl)cc2)c1 | inactive: 51%
CC(=O)c1ccc(NC(=O)c2cc(C)nn2-c2ccccc2)cc1 | inactive: 71%
COCCN(CCOC)S(=O)(=O)c1ccc(C(=O)Nc2sc3c(c2C(=O)OC)CCN(C)C3)cc1 | inactive: 92%
CCOC(=O)c1c(NC(=O)Cc2coc3cc(C)cc(C)c23)sc2c1CCC2 | inactive: 102%
CCOC(=O)c1ccccc1NC(=O)c1sc2nc3n(c(=O)c2c1C)CCCCC3 | inactive: 77%
CN(C)S(=O)(=O)N(CC(=O)NCCSCc1c(F)cccc1Cl)c1ccccc1 | inactive: 71%
CN(C)c1ncnc2c1ncn2C1OC(CO)C(O)C1O (stereo not given) | inactive: 102%
COC(=O)c1c(NC(C)=O)c2c3c(sc2n1Cc1cc(C)ccc1C)CCCC3 | inactive: 80%
Cc1ccc(NC(=O)c2cc(S(=O)(=O)N3CCC4(CC3)OCCO4)ccc2F)cc1Cl | inactive: 87%
CCCCN(CCCNC(=O)c1cc(Nc2cccc(SC)c2)nc2ccccc12)Cc1ccccc1 | inactive: 86%
Cc1ccc(S(=O)(=O)N2CCC(N3CCN(Cc4ccccc4)C(=O)C3=O)CC2)cc1C | inactive: 71%
Cc1cccc(-n2c(C)cc(C(=O)C(=O)Nc3ccccc3F)c2C)c1C | inactive: 82%
CCCN1CCN(CCCNC(=O)c2cc3c(=O)n(CC)c4ccccc4c3s2)CC1 | inactive: 85%
O=c1[nH]c(SCc2c(F)cccc2Cl)nc2c1CCC2 | inactive: 88%
CCn1c(SCC(=O)OC2CCCCC2)nnc1-c1ccc(OC)cc1 | inactive: 113%

SMILES | survival
CCOc1ccc(-c2cccc(NS(=O)(=O)c3ccc(F)cc3F)c2)nn1 | inactive: 73%
COc1ccc(-c2noc(CNC(=O)c3ccccc3Br)n2)cc1 | inactive: 82%
COc1ccc(C(=O)c2oc3ccccc3c2NC(=O)c2cc(=O)c3ccc(C)cc3o2)cc1Cl | inactive: 87%
Cc1ccc(S(=O)(=O)CC(=O)Nc2nc3c(C)cc(C)cc3s2)cc1 | inactive: 80%
Cc1cccc(C(=O)Nc2nnc(S(=O)(=O)N(C)Cc3ccccc3)s2)c1 | inactive: 29%
CCCOc1ccc(C2c3c(-c4ccccc4O)n[nH]c3C(=O)N2CCc2ccccc2)cc1OCC (stereo not given) | inactive: 81%
COc1cccc(NC(=O)c2cccc3c(=O)c4c([nH]c23)CCCC4)c1 | inactive: 73%
CCOc1ccc(OCC)c(NC(=O)c2cc(S(=O)(=O)N3CCc4ccccc43)cn2C)c1 | inactive: 83%
CCOc1ccc2ncc3c(-c4ccc(C)cc4)nn(-c4cccc(F)c4)c3c2c1 | inactive: 56%
O=S(=O)(c1cccc(Cl)c1)c1nnn2c1nc(NCc1ccc3c(c1)OCO3)c1sccc12 | inactive: 80%
COc1ccc(-c2nc3c(c(SCC(=O)N4CCCCC4)n2)Cc2cc(C)ccc2O3)cc1 | inactive: 80%
Cc1ccc(S(=O)(=O)NCC(c2ccco2)N2CCOCC2)cc1 (stereo not given) | inactive: 78%
CC(=O)Nc1ccc(/C=C/c2noc(-c3ccccc3O)n2)cc1 | inactive: 86%
CCOC(=O)CSc1nc(-c2ccc(OCC)cc2)cc(C(F)(F)F)c1C#N | inactive: 69%
Cc1ccc(C)c(N2CCN(C(=O)Cn3cnc4onc(-c5ccc(F)cc5)c4c3=O)CC2)c1 | inactive: 72%
CC(=O)c1ccc(N2CCN(S(=O)(=O)c3cc4[nH]c(=O)c(=O)[nH]c4cc3C)CC2)cc1 | inactive: 66%
CCc1nnc(NC(=O)c2cc(=O)c3cc(C)ccc3o2)s1 | inactive: 85%
CCN1C(=C(C#N)C#N)C=Cc2cc(C)ccc21 | inactive: 112%
COc1ccccc1CNC(=O)C(=O)NCC(c1cccs1)S(=O)(=O)c1ccccc1 (stereo not given) | inactive: 124%
Cc1ccc2oc(=O)c3cc(C(=O)NCCCOC(C)C)sc3c2c1 | inactive: 82%
COc1ccc(-n2c(SCC(=O)NCc3ccc(Cl)cc3)nc3ccsc3c2=O)cc1 | inactive: 54%
COc1ccc(-n2nnnc2C2CCN(S(=O)(=O)c3cccc(C(F)(F)F)c3)CC2)cc1 | inactive: 96%
COc1cccc(NC(=O)C(Cc2ccccc2)N2Cc3ccccc3C2=O)c1 (stereo not given) | inactive: 87%

SMILES | survival
Cc1ccc(NC(=O)CCCc2nc(-c3ccco3)no2)cc1Cl | inactive: 73%
COc1ccc(-c2noc(CCC(=O)N(C)c3cc(Cl)ccc3OC)n2)cc1 | inactive: 20%
CC(C)CCOc1ccc(C(=O)NCC2OCCc3ccccc32)cc1 (stereo not given) | inactive: 74%
CC(C)(C)C(=O)C1C2C3COC(O3)C(=O)C2C2C=Cc3ccccc3N21 (stereo not given) | inactive: 127%
COc1ccc(NS(=O)(=O)c2ccc(N3CCCCS3(=O)=O)cc2)cc1Cl | inactive: 83%
COc1cccc(-n2c(=O)c3cc(OC)c(OC)cc3n(CC(=O)Nc3ccc(F)cc3)c2=O)c1 | inactive: 73%
CCCn1c2ccc(F)cc2c2nnc(SCCN3CCCCC3)nc21 | inactive: 145%
CCC(=O)N1CCc2cc(Br)cc(S(=O)(=O)CCC(=O)Nc3cccc(Cl)c3)c21 | inactive: 75%
CCCc1cnc2c(c1SCC(=O)Nc1ccccc1OCC)c(=O)n(C)c(=O)n2C | inactive: 64%
COc1cc(NC(=O)c2cccc(Cl)c2Cl)ccc1NC(=O)c1cc2ccccc2o1 | inactive: 83%
CCS(=O)(=O)N1CCCc2cc(C(=O)Nc3cccc(C(C)=O)c3)ccc21 | inactive: 98%
CCOc1ccc(C(=O)N(Cc2ccc(C(C)C)cc2)Cc2ccco2)cc1 | inactive: 78%
O=S(=O)(N1CCCCC1)N1CCNCC1 | inactive: 116%
Clc1ccc(-c2nnn3c2nc(NC2CCCCC2)c2ccccc23)cc1 | inactive: 57%
CCOc1ccc(Nc2ncnc3c2c(-c2ccccc2)cn3-c2cccc(C)c2)cc1 | inactive: 115%
Cc1cc2c(cc1NS(=O)(=O)c1ccc(Br)cc1)n(C)c(=O)c(=O)n2C | inactive: 129%
CCCSCCCNC(=O)c1ccc(C)c(NC(=O)c2nsc3ccccc23)c1 | inactive: 73%
COc1cccc(Cn2nc(SC)c(S(=O)(=O)c3ccccc3)c2N(C(C)=O)C(C)=O)c1 | inactive: 71%
c1ccc2[nH]c(CSc3nnnn3C3CCCCC3)nc2c1 | inactive: 98%
COc1ccc(CC(=O)N2CCc3cc(OC)c(OC)cc3C2COc2ccc(F)cc2)cc1 (stereo not given) | inactive: 93%
Cn1nc(-c2ccccc2F)c2cc(C(=O)NCc3ccccc3Cl)sc21 | inactive: 117%
